From PubChem BioAssay AID686978 (National Center for Advancing Translational Sciences (NCATS), 2013)
Out of some 420,000 compounds screened, about 64,000 (15%) were called active. The inconclusive results got no clear call from the source; some entries with a clear call stand among them for comparison. The call rests on the fitted dose curve; in most records, active means well fitted inhibition curve with a large enough effect; inconclusive means small, poorly fitted or top-dose-only effect; inactive means flat fitted curve, though single readings scatter. Potencies of inconclusive entries are left out as doubtful fits.

test: qHTS for Inhibitors of human tyrosyl-DNA phosphodiesterase 1 (TDP1): qHTS in cells in absence of CPT; conditions: DT40 Tdp1-/- hTDP1 cells, no CPT, ATP luminescence, 48 h; activity change, negative = growth inhibition: at 46.2 µM (top of the series); further: nearly all actives have a fitted effect of over 55% in size
Procedure, shortened: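 Stably hTDP1-transfected Tdp1-null chicken DT40 cells were treated with library compounds minus camptothecin and grown for at least 48 hr at 37 °C, after which cellular ATP was quantified by luminescence.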
On the % scale 0 is the no-effect control and ±100 the full control effect; potency means the concentration at half of the fitted maximal effect; tags describe the fitted curve by direction and shape.

SMILES	activity change, negative = growth inhibition	Potency
CCCCN(CC)S(=O)(=O)c1ccc2c(c1)n(C)c(=O)c(=O)n2C	inactive: -26%	
CCOC(=O)c1cc(S(=O)(=O)NCc2ccc(C)cc2)[nH]n1	inactive: -16.3%	
Oc1ccc(-c2csc(NCc3ccco3)n2)cc1		inconclusive [inhibitor, single point]
COc1ccc(C2=NN(C(=O)c3ccccc3)C(c3ccccc3)C2)c(O)c1 (configuration not stated)		active: 18.4 µM
CC1(C(=O)NS(=O)(=O)c2ccccc2Cl)CCN1C(=O)C1(c2ccccc2)CC1 (configuration not stated)	inactive: -2.41%	
C[n+]1ccc(/C=C/c2ccc3ccccc3c2)cc1		inconclusive [inhibitor, single point]
C/C=C/c1ccc(OCCCCOc2c(OC)cccc2OC)c(OC)c1		inconclusive [inhibitor, single point]
COc1cc(OC)c(OC)cc1CN1CCOc2ccc(CN3CCN(C(C)=O)CC3)cc2C1		active: 20.6 µM
N#Cc1cccc(CSc2ncnc(N)n2)c1	inactive: -16.2%	
CC(C)(C)S(=O)N1Cc2cc(C(=O)NCc3ccc4c(c3)OCO4)nc(-c3cccc(-c4ccncc4)c3)c2[C@H]1CCO (some centres not stated)		inconclusive [inhibitor, single point]
COc1ccc(Cl)cc1NC(=O)CN1CCN(S(=O)(=O)N2CCOCC2)CC1		inconclusive [inhibitor, single point]
CCOC(=O)c1cc2c(=O)[nH]c(C(Cl)(Cl)Cl)nc2o1		inconclusive [inhibitor, single point]
CCOC(=O)c1ccc(N=Nc2c(C)c(C#N)c(O)[nH]c2=O)cc1		inconclusive [inhibitor, partial curve]
Cc1cccc(C(=O)Nc2nnc(C3=COCCO3)o2)c1		inconclusive [inhibitor, single point]
Cc1cn(-c2ccc(Br)cc2)[nH]c1=O	inactive: -12.4%	
CC1=C(C(=O)N(C(C)C)C(C)C)CC(CC(=O)NC2CC2)C(=O)N1Cc1ccc(F)cc1 (configuration not stated)	inactive: -3.96%	
CCCNC(=O)C1(C)CCN(C(=O)c2ccc(F)cc2Cl)C1 (configuration not stated)	inactive: 2.54%	
O=C(NCCN1CCCCC1)c1ccc(I)cc1		inconclusive [inhibitor, partial curve]
C=CCOc1ccc(/C=C2\SC(=S)N(NS(=O)(=O)c3ccccc3)C2=O)cc1	inactive: 3.93%	
CC(C)(C)C1CCc2nc(NC(=O)Cc3cn4ccsc4n3)sc2C1 (configuration not stated)		inconclusive [inhibitor, single point]
COc1ccc2c(C)c(C(=O)O)oc2c1	inactive: -7.51%	
Cc1ccccc1NS(=O)(=O)c1cc(C(=O)N2CCCC2)ccc1C	inconclusive: -36% [inhibitor]	
